Experimental data: PubChem BioAssay AID2676 (National Center for Advancing Translational Sciences (NCATS), 2010)
Several values for one entry are separate records, joined by “and”; a condition that tells them apart may be missing. Equal entries are not always repeated. About 1,100 (0.3%) of roughly 370,000 compounds were called active. This list was built around the results that the source calls inconclusive (neither active nor inactive); the mix of calls is not that of the screen. Calls follow the shape of the dose curve; as a rule, active = well fitted activation curve with a large enough effect; inconclusive = small, poorly fitted or top-dose-only effect; inactive = flat fitted curve, though single readings scatter. Potencies beside an inconclusive call are fits to weak or partial responses and may not hold up.

What follows are compounds tested against Relaxin receptor 1 (Homo sapiens) (UniProt Q9HBX9) (assay: qHTS Assay for Agonists of the Relaxin Receptor RXFP1). Conditions: HEK293T-RXFP1 cAMP TR-FRET, 30 min; series mostly up to 57.5 µM.
UniProt Q9HBX9, sequence (Q9HBX9 whole entry, looked up): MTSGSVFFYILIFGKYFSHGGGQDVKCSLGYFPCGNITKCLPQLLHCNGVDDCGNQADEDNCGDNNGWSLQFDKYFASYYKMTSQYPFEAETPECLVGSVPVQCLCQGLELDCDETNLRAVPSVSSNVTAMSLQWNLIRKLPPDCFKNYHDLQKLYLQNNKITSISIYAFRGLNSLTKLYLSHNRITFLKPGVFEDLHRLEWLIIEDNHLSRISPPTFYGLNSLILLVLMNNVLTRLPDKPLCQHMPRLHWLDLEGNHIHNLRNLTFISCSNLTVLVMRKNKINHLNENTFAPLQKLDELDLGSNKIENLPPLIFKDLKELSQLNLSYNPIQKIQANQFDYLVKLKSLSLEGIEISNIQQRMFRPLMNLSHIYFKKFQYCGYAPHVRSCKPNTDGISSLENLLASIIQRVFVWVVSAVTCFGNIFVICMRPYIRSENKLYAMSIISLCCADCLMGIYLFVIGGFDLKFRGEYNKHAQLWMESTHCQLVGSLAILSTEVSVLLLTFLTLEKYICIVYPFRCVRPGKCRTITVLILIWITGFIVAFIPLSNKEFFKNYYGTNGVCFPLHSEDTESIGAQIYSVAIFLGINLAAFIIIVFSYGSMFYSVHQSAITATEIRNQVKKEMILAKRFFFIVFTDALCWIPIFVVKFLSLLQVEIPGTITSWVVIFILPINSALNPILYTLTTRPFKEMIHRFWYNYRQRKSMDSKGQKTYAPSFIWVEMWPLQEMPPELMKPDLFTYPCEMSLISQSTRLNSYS
Procedure, shortened: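 Agonist response is measured as cAMP accumulation in an RXFP1-transfected HEK293T line under PDE4 inhibition. Values are scaled between buffer-only and 29 nM porcine relaxin, and EC50s come from standard Hill equation fits.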
Also: nearly all actives have a fitted effect of over 60% in size.
Potency is read from the fitted curve at half-maximal effect; tags tell the direction and shape of the fitted curve.

| Compound | Potency |
| --- | --- |
| CC1CCCN(C(=O)COC(=O)CNC(=O)c2sc3ccccc3c2Cl)C1 (configuration not stated) | inconclusive: 15.8 µM [activator, partial curve] |
| COc1ccccc1CNC(=O)c1cccc(Nc2nc3ccccc3n3nnnc23)c1 | inconclusive: 31.6 µM [activator, partial curve] |
| COc1ccc(SCCN2CC[C@@H](C(C)(C)C)CCC2=O)cc1 | inactive |
| Cc1ccc(C2CC(=O)c3cnc(N4CC(C)CC(C)C4)nc3C2)cc1 (configuration not stated) | inconclusive: 35.5 µM [activator, single point] |
| COc1ccc(-c2nnc(SCC(=O)Nc3ccc(F)cc3)s2)cc1 | inconclusive: 31.6 µM [activator, single point] |
| COc1ccc(NC(=O)c2ccc(C(=O)c3cc(OC)ccc3OC)cc2)cc1 | inconclusive: 25.1 µM [activator, partial curve] |
| Cc1ccc(S(=O)(=O)c2nc(-c3ccc(Cl)cc3)oc2N2CCCCCC2)cc1 | inactive |
| CCOC(=O)c1sc(=NC(=O)c2ccccc2Br)n(C)c1C | inconclusive: 39.8 µM [activator, single point] |
| O=S(=O)(c1cccc(Cl)c1)c1nnn2c1nc(NC1CCCCCC1)c1sccc12 | inconclusive: 7.08 µM [activator, single point] |
| COc1ccc(CCNC(=O)c2cc(-c3ccccn3)nc3c(Cl)cccc23)cc1OC | inconclusive: 39.8 µM [activator, single point] |
| Nc1c(C(=O)Nc2ccc(Br)cc2)sc2nc(-c3ccco3)ccc12 | inconclusive: 31.6 µM [activator, partial curve] |
| Cc1cc(C(=O)Nc2nc3ccc(S(C)(=O)=O)cc3s2)c(C)o1 | inconclusive: 31.6 µM [activator, single point] |
| Cc1ccc(-c2nn(CCC(=O)Nc3cccnc3)c(=O)c3ccccc23)cc1 | inactive |
| COc1ccc2c(-c3ccccc3)cc(SCC(=O)NC(N)=O)nc2c1 | inconclusive: 35.5 µM [activator, single point] |
| N=c1c2c(-c3ccccc3)c(-c3ccccc3)n(Cc3ccco3)c2ncn1Cc1ccco1 | inactive |
| COc1ccc(CNC(=O)CCCn2nc(C)n3ccnc3c2=O)cc1 | inconclusive: 28.2 µM [activator, partial curve] |
| COc1ccc2c(C)cc(SCC(=O)Nc3cccnc3Cl)nc2c1 | inconclusive: 39.8 µM [activator, single point] |
| O=C(Cn1nc(Cc2cccnc2)c2ccccc2c1=O)Nc1cccc(C(F)(F)F)c1 | inactive |
| CC(C)Cc1nc(N2CCN(C(=O)Cc3ccccc3)CC2)c(C#N)c2c1COC(C)(C)C2 | inconclusive: 39.8 µM [activator, single point] |
| CCn1c(/C=C/N(C(C)=O)c2ccccc2)[n+](CCCS(=O)(=O)[O-])c2cc(Cl)c(Cl)cc21 | inconclusive: 28.2 µM [activator, partial curve] |
| CCCC[n+]1ccn(-c2nc3ccccc3nc2[N-]S(=O)(=O)c2ccc(Br)cc2)c1 | inconclusive: 25.1 µM [activator, partial curve] |
| O=C(Nc1cccc(C(F)(F)F)c1)c1cc(Br)cc2c1OCC2 | inconclusive: 14.1 µM [activator, partial curve] |
| Cc1cc(NC(=O)CSc2nc3ccccc3c(=O)n2Cc2ccc(F)cc2)no1 | inconclusive: 31.6 µM [activator, single point] |

| Compound | Potency |
| --- | --- |
| COc1ccc2nc(N3C(=O)CC(C(C)c4ccccc4)C3=O)sc2c1 (configuration not stated) | inactive |
| COc1cc(NC(=O)Cn2c(C)cc3ccccc3c2=O)cc(OC)c1OC | inconclusive: 39.8 µM [activator, single point] and inconclusive: 35.5 µM [activator, single point] |
| COc1ccc(-c2c(C)nc3c(-c4ccc(F)cc4)cnn3c2N)cc1 | inconclusive: 39.8 µM [activator, single point] |
| COc1ccc(-c2cnc(C)o2)cc1S(=O)(=O)Nc1ccc(C)c(N(C)C)c1 | inactive |
| COc1ccc(Br)c(C(=O)Nc2nc3ccccc3[nH]2)c1 | inconclusive: 39.8 µM [activator, single point] |
| COc1ccc(-c2nc(NC(=O)c3ccc(OCC(=O)Nc4ccc(F)cc4)c(OC)c3)sc2C)cc1 | active: 28.2 µM |
| O=C1C(C2=C(O)c3ccccc3C2=O)=Nc2ccccc21 | inactive |
| CCn1c(SCC(=O)NC2CCCC2)nc2c1c(=O)n(C)c(=O)n2C | inconclusive: 15.8 µM [activator, partial curve] |
| COc1ccc(Cl)cc1NC(=O)c1sc2nc(C)nc(N3CCOCC3)c2c1C | inconclusive: 35.5 µM [activator, single point] |
| Cc1ccc(-c2nc3cc(Cl)ccc3o2)cc1NC(=O)COc1ccc(F)cc1 | inconclusive: 22.4 µM [activator, partial curve] |
| CC1(C(=O)Nc2nc3ccccc3s2)CC1(Br)Br (configuration not stated) | active: 20 µM |
| O=C1CC(c2ccc(F)cc2)Cc2nc(N3CCc4ccccc43)ncc21 (configuration not stated) | inconclusive: 39.8 µM [activator, single point] |
| CC(C)(C)C1C/C(=C/c2ccccn2)C(=O)/C(=C/c2ccccn2)C1 (configuration not stated) | inactive |
| O=C(Nc1cc(F)cc(F)c1)c1sc(Cl)nc1-c1ccccc1 | inconclusive: 39.8 µM [activator, single point] |
| CC(C)c1nc(SCC(=O)NC2CCCC2)c2ccccc2n1 | inconclusive: 31.6 µM [activator, partial curve] |
| COc1cc(OC)c(CN2CCC(CO)(CCOc3ccccc3)CC2)c(OC)c1 | inactive |
| CC(C)C(=O)Nc1ccc2nc(SCCOc3ccccc3)sc2c1 | inconclusive: 35.5 µM [activator, single point] |
| CCN(CC)CCn1c(SCC(=O)Nc2cccc(OC)c2)nc2c(sc3ccccc32)c1=O | inactive |
| CCc1nc(SCC(=O)NCc2ccco2)c2c3c(sc2n1)CCCC3 | inconclusive: 35.5 µM [activator, single point] |
| CCCOc1ccc(C(=O)Nc2c(C(=O)c3ccc(C)cc3)oc3ccccc23)cc1 | inconclusive: 35.5 µM [activator, single point] |
| CC(=O)c1cnc2cc(-c3cccc(Br)c3)nn2c1C | inconclusive: 39.8 µM [activator, single point] |
| Cc1cc(C(F)F)n2nc(C(=O)Nc3ccccc3Br)nc2n1 | inconclusive: 35.5 µM [activator, single point] |
| C=CCOc1cccc(C2C(C(=O)c3ccc(C)o3)=C(O)C(=O)N2c2nccs2)c1 (configuration not stated) | inconclusive: 20 µM [activator, partial curve] |

| Compound | Potency |
| --- | --- |
| COc1cccc(N2CCN(C(c3ccccn3)c3nnnn3C(C)(C)C)CC2)c1 (configuration not stated) | inactive |
| Cc1cccc(-c2nc3c(c(SCC(=O)N4CCCC4)n2)COC(C)(C)C3)c1 | inconclusive: 35.5 µM [activator, single point] |
| COC(=O)c1sc(N2C(=O)C(O)=C(C(=O)c3ccc(C)o3)C2c2ccc(F)cc2)nc1C (configuration not stated) | active: 8.91 µM |
| COc1ccc(OC)c(NC(=O)CCc2nc(-c3ccc(C)cc3)no2)c1 | inactive |
| Cc1ccc(CN2C(=O)c3ccccc3Sc3ccc(C(=O)NCCCN4CCOCC4)cc32)cc1 | inactive |
| COc1ccc(OC)c(CNC(=O)CN2CC(C)Sc3ccccc32)c1 (configuration not stated) | inactive |
| Cn1c2ccccc2c2nnc(SCC(=O)Nc3cccc(C(=O)O)c3)nc21 | active: 15.8 µM |
| COc1ccc(CNC(=O)CCCn2c(=O)c3cccn3c3cccnc32)cc1 | inconclusive: 35.5 µM [activator, single point] |
| Cc1nonc1NC(=O)CSc1nc2cc(Cl)ccc2c2c1CCCC2 | inconclusive: 31.6 µM [activator, single point] |
| CCOc1ccc(Nc2nc3c(C)cccc3cc2C#N)cc1 | inconclusive: 39.8 µM [activator, single point] |
| C=CCN(Cc1nc(-c2cc(OC)ccc2OC)oc1C)C1CCS(=O)(=O)C1 (configuration not stated) | inconclusive: 25.1 µM [activator, partial curve] |
| CC(=O)CCCCn1c(=O)c2c(ncn2C)n(C)c1=O | inconclusive: 17.8 µM [activator, partial curve] and inconclusive: 15.8 µM [activator, partial curve] |
| O=C(O)c1ccc(N2C(=O)c3cccc4cccc(c34)C2=O)cc1 | inconclusive: 28.2 µM [activator, partial curve] |
| O=C(Cn1cnc2c(cnn2-c2ccc(F)cc2)c1=O)NCC1CCCO1 (configuration not stated) | inactive |
| O=S(=O)(c1ccccc1)c1nnn2c1nc(NCc1ccccc1)c1sccc12 | inconclusive: 39.8 µM [activator, single point] |
| CCOc1ccc(NC(=O)CSc2ccc3nnc(-c4ccccn4)n3n2)cc1 | inconclusive: 25.1 µM [activator, partial curve] |
| Cc1ccc(NC(=O)CCCc2nnc3n(C)c(=O)c4sccc4n23)cc1C | inconclusive: 12.6 µM [activator, partial curve] |
| CCOC(=O)C1CCN(C(=O)COC(=O)C2CCN(S(=O)(=O)c3ccc(C)c(C)c3)CC2)CC1 | inconclusive: 35.5 µM [activator, single point] |
| CC(C)c1ccc(-c2c(C#N)c(N)nc(SCC(=O)N3CCCCC3)c2C#N)cc1 | active: 22.4 µM |
| CC1CCCCN1C(=O)CSc1nc2ccccc2nc1Cc1ccccc1 (configuration not stated) | inactive |
| O=C(CSc1ncnc2ccccc12)Nc1cc(S(=O)(=O)N2CCCCC2)ccc1Cl | active: 15.8 µM |
